Reference: paper PMC4336329 (PLoS ONE, 2015)
About 14,000 (4.5%) of roughly 310,000 compounds showed an effect of 50% or more. Effects have a minus sign here. Some of the results follow.

Target: human ether-à-go-go-related gene (hERG) potassium channel (human, UniProt Q12809)
Experiment: primary screen, population patch clamp on CHO cells stably expressing hERG
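Note: peak tail current of the secondary pulse compared with the same well before compound.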

human ether-à-go-go-related gene (hERG) potassium channel, sequence (Q12809 whole entry, looked up): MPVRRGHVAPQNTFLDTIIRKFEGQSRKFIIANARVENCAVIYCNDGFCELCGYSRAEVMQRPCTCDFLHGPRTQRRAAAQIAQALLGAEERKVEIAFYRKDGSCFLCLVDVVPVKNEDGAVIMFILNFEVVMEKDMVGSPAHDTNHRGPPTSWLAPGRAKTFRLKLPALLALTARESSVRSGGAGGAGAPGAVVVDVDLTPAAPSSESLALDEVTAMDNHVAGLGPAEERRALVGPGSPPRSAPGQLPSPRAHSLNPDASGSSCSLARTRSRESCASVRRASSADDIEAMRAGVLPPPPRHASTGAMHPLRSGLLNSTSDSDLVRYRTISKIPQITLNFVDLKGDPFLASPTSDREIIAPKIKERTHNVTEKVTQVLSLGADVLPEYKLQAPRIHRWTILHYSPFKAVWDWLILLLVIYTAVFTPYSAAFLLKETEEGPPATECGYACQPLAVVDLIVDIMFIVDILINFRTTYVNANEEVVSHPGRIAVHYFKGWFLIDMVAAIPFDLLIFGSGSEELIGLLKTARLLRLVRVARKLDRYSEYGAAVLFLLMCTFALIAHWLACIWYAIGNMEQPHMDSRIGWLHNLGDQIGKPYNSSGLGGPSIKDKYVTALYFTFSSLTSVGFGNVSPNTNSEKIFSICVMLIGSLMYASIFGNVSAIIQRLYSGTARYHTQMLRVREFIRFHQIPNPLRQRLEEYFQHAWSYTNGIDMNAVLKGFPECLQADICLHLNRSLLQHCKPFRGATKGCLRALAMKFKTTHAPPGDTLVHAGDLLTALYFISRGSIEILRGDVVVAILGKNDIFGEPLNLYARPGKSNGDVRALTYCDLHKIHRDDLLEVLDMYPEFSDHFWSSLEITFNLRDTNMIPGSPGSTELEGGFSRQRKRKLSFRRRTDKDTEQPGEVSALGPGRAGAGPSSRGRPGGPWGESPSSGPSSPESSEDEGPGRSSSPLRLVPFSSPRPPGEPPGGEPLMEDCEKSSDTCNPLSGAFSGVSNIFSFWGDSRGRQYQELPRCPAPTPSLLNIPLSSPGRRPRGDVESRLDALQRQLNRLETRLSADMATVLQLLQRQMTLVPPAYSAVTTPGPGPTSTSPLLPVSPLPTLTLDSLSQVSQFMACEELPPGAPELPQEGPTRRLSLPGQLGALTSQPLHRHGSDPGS

| Compound | hERG current change (%, negative = inhibition) at 10uM |
| --- | --- |
| CCOC(=O)CCNC(=O)N1CCCC(CNS(=O)(=O)c2cccs2)C1 (stereo not drawn) | 11.7% |
| CC1CCN(S(=O)(=O)c2ccc(C(=O)N3CCCC(C(F)(F)F)C3)cc2)CC1 (stereo not drawn) | -26.1% |
| O=C(c1cccc(C(F)(F)F)c1)C1CCCN(C(=O)CCCn2cncn2)C1 (stereo not drawn) | -34.7% |
| CCOCCN(C(=O)c1ccccc1Cl)c1ccccc1 | 13.2% |
| CCOc1ccc(C(=O)n2cnnc2N)cc1 | 12.7% |
| Cc1ccc(C)c(OCC(=O)Nc2ccccc2C(=O)NC2CC2)c1 | 7.74% |
| COCC1CCN(Cc2c(C(=O)N3CCc4ccccc4C3)nc3ccc(Cl)cn23)C1 (stereo not drawn) | -16.3% |
| COc1ccc2oc(=N)c(C(=O)Nc3ccccc3Cl)cc2c1 | 2.18% |
| CC1CCC/C=C/C2CC(O)CC2C(O)/C=C/C(=O)O1 (stereo not drawn) | -2.12% |
| CC(C)(C)c1ccc(C(=O)NNc2cc(Cl)cc(Cl)c2)cc1 | 13.6% |
| COc1ccc(Cl)cc1NC(=O)CN1C(=O)NC(C)(Cc2ccc(OC)c(OC)c2)C1=O (stereo not drawn) | -5.21% |
| CCn1ccc(C(=O)NCCCN2CCCC2=O)n1 | -18.2% |
| Cc1cccc(C)c1NC(=O)c1cccc2c1C(=O)N(C1CCCCC1)C2 | -7.01% |
| CC(=O)Nc1ccc(-c2csc(NC=C3C(=O)OC(C)(C)OC3=O)n2)cc1 | 27.5% |
| Cc1cc(N)n(-c2ccccn2)n1 | 12.9% |
| CCCCOC(=O)C(C)Nc1n[nH]c(=O)[nH]c1=O (stereo not drawn) | 15.9% |
| CCC(=O)c1ccc(OCC(O)CN2CCN(S(=O)(=O)N3CCCCC3)CC2)cc1 (stereo not drawn) | -55.1% |
| O=C(NCCNC(=O)c1ccc([N+](=O)[O-])cc1)c1ccncc1 | 12% |
| COc1ccc(Cc2c(O)nc[nH]c2=O)cc1 | 24.7% |
| CC1=NN(C(=O)Cc2ccc([N+](=O)[O-])cc2)C(O)(c2cccnc2)C1 (stereo not drawn) | -23.8% |
| COc1ccccc1/C=C1\SC(=S)N(CCC(=O)Nc2cccc(O)c2)C1=O | 14.1% |
| Cc1ccc(-c2nc(CNC(=O)c3ccco3)cs2)cc1 | -13.6% |
| Cc1cccc(C(=O)NCCc2csc(C)n2)c1 | 9.69% |

| Compound | hERG current change (%, negative = inhibition) at 10uM |
| --- | --- |
| Cc1ccc(CSCCNC(=O)c2cccc([N+](=O)[O-])c2)cc1 | -64.1% |
| COc1cc(CN2CCNC(=O)C2CC(=O)NC2CCC2)cc(OC)c1 (stereo not drawn) | 8.68% |
| CCOc1ccc(OCCCC(=O)N2CCN(S(=O)(=O)c3ccc(Cl)cc3)CC2)cc1 | 1.78% |
| CC1Oc2ccccc2OC1(O)c1ccccn1 (stereo not drawn) | -3.89% |
| Cc1ccc(Cl)cc1OCC(=O)NCCOC(=O)Nc1sc(=S)n(C)c1C | -14.1% |
| c1ccc2c(c1)[nH]c1ccncc12 | -6.67% |
| Cc1nc(SCC(=O)NCCc2ccccc2)nc(C)c1C | 6.55% |
| Cc1ccc(NC(=O)c2ccc(OC(=O)c3ccco3)cc2)cc1 | 18.3% |
| CC(=O)c1cccc(NC(=O)N2CCCC2C(=O)Nc2c(C)cccc2C)c1 (stereo not drawn) | 3.84% |
| CC(C)C(=O)N1CCN(c2ccccc2NC(=O)COc2ccccc2)CC1 | -57.6% |
| COc1cccc(-n2c(=O)c3ccccc3n3c(=S)[nH]nc23)c1 | 27.6% |
| CCOc1ccc(NC(=O)C2CCCN2S(=O)(=O)c2ccc3c(c2)C(C)(C)C(=O)N3C)cc1 (stereo not drawn) | -6.75% |
| O=C(Cc1cccs1)NCCc1csc(-c2ccccc2)n1 | 4.9% |
| O=[N+]([O-])c1ccccc1CN1CCN(S(=O)(=O)c2ccccc2)CC1 | -15.3% |
| COc1ccc(-c2nc(CN3CCCCC3c3cccnc3)c(C)o2)c(F)c1 (stereo not drawn) | -35.9% |
| CCOC(=O)c1c(O)c(Cl)c(C)[nH]c1=O | 19.7% |
| CC1SC(=NC(=O)C(C)N2C(=O)c3ccccc3C2=O)NC1=O (stereo not drawn) | 6.08% |
| O=C(CN1C(=O)NC2(CCCC2)C1=O)Nc1ccccc1F | -2.72% |
| COc1ccc(N2CCN(C(=O)COc3ncnc4ccccc34)CC2)cc1 | -7.2% |
| CCC(=O)Nc1ccc(N2CCN(Cc3ccccc3)CC2)cc1 | -25.9% |
| CCC(=O)c1ccc(OCC(O)CN2CCc3ccccc3C2)cc1.Cl (stereo not drawn) | -63.7% |
| COC(=O)c1ccc([C@H](NC(=O)c2ccco2)[C@]2(C)C[C@H]2C2CCCCC2)cc1 | 9.14% |
